Experimental data reported in patent US20040208880A1 (University of Texas, published 2004).

Biological target: T1, p21-activated protein kinase 1 (Pak1), full-length, amino acids 1-545 (human, UniProt Q13153 1-545)
T1 construct: Used both as in vitro translated 35S-labeled full-length protein and as the endogenous protein of human cell lines
Test: GST pull-down with in vitro translated 35S-labeled Pak1

T1 sequence (Q13153 whole entry A26V/E503D, the tested form may be a part): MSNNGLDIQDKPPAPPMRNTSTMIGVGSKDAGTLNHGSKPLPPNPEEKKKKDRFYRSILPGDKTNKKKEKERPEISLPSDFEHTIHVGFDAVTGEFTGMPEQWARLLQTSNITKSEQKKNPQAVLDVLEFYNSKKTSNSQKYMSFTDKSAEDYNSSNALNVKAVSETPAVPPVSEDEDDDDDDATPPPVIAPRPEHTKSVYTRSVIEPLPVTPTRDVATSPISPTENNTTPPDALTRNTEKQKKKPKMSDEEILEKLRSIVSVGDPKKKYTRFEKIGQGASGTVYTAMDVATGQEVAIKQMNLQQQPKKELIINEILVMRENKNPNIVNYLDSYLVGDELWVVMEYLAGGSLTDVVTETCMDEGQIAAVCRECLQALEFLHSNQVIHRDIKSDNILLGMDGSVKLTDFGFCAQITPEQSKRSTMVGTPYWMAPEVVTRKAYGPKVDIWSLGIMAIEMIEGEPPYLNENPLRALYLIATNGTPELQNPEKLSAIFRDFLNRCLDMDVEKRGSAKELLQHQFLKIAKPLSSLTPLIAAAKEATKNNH

binding result: no binding
B1: GST (other)
chain: not shown
notes: Negative control in GST pull-down assays; also called glutathione-S-transferase
